Paper PMC4336329 (PLoS ONE, 2015)
The campaign covered roughly 310,000 compounds. About 2,200 (0.71%) showed an effect of 50% or more. Effects have a minus sign here. This is one part of the list.

Each compound was assayed against human ether-à-go-go-related gene (hERG) potassium channel (human, UniProt Q12809) (assay: primary screen, population patch clamp on CHO cells stably expressing hERG).
human ether-à-go-go-related gene (hERG) potassium channel, sequence (Q12809 whole entry, looked up): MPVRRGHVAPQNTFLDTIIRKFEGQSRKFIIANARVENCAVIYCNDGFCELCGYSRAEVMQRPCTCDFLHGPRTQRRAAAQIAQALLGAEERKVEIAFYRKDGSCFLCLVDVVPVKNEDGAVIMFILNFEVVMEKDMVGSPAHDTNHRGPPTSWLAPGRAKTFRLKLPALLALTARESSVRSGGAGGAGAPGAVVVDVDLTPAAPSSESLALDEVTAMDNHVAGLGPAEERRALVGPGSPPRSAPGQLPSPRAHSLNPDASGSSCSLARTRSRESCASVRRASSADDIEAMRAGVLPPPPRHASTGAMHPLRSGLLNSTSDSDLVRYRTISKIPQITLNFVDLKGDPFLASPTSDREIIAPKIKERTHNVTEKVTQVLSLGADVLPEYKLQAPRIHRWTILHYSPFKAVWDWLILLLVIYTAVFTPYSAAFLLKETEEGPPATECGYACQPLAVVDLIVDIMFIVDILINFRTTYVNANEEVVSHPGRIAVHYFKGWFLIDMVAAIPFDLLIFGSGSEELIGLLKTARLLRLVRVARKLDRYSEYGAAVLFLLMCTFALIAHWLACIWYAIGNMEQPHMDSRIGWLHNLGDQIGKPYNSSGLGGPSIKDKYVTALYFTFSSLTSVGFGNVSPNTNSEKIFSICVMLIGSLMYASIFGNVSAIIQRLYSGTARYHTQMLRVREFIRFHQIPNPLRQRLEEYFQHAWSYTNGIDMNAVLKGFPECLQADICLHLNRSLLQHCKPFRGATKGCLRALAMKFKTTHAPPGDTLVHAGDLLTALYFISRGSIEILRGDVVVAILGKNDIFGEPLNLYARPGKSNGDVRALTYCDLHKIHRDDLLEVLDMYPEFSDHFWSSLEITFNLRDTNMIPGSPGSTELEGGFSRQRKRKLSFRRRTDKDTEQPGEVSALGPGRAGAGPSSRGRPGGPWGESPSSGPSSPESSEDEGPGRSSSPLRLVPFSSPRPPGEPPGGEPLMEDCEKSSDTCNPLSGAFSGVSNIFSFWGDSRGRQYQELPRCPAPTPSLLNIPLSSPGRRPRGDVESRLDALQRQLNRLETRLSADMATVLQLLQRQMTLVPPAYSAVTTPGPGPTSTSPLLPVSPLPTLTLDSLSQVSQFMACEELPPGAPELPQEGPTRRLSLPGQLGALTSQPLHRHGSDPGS

Row | Structure (SMILES) | hERG current change (%, negative = inhibition) at 1uM [%]
1 | O=C1c2ccccc2S(=O)(=O)c2cc(C(=O)N3CCN(c4c(Cl)cncc4Cl)CC3)ccc21 | 8.05
2 | CC(C)(C)c1ccc(C(=O)Nc2ncn[nH]2)cc1 | -0.575
3 | O=C(O)c1ccc2c(c1)ncn2C1CCCCC1 | 11.2
4 | Cc1nn(C)cc1S(=O)(=O)N1CCN(Cc2ccccc2Cl)CC1 | 2.52
5 | C/C(=N\NC1=NCCN1)c1ccc(N)c([N+](=O)[O-])c1 | 8
6 | CCOC(=O)CNc1ncnc2nc[nH]c12 | 12
7 | O=C(NCCCNCc1ccccc1)c1ccccn1.O=C(O)/C=C/C(=O)O | 4.26
8 | O=C(O)Cc1ccc(NS(=O)(=O)c2c(Cl)cccc2Cl)cc1 | 0.167
9 | CCN(CC)c1nc(-c2ccc(C(=O)NN)cc2)nc(-c2ccc(C(=O)NN)cc2)n1 | 14.5
10 | COc1ccccc1CN1CC(C(=O)N(C)Cc2[nH]c3ccccc3c2C)CCC1=O (stereo not shown) | 4.59
11 | CCC1=Nc2cc(C(=O)O)ccc2Sc2ccc(Cl)cc21 | 17.5
12 | CC(=O)NS(=O)(=O)c1ccc(NC(=O)C2c3ccccc3Oc3ccccc32)cc1 | 10.4
13 | Cc1cccc(N2C(S)=C(C#N)C(=O)NC2c2cccs2)c1 (stereo not shown) | 8.42
14 | CCOC(=O)C1(Cc2cccc(Cl)c2)CCCN(C(=O)c2cc(C)on2)C1 (stereo not shown) | 22.3
15 | CN(C(=O)c1cccc(N2C(=O)C3C4C=CC(C4)C3C2=O)c1)C1CCCCC1 (stereo not shown) | 5.1
16 | CC(=O)c1ccc(NS(=O)(=O)c2ccc3c(c2)N(C(C)=O)CCO3)cc1 | 23.4
17 | O=S(=O)(Cc1ccccc1)Nc1ccc(F)cc1 | 15.1
18 | O=P1(Oc2ccccc2)OCCCS1 (stereo not shown) | 12.2
19 | CCOC(=O)NC1(C(F)(F)F)C(=O)N(Cc2ccccc2)C2=C1C(=O)CC(C)(C)C2 (stereo not shown) | 23.8
20 | O=C(O)c1ccccc1C(=O)NCCCn1ccnc1 | 14.5
21 | O=C(CCNC(=O)c1ccc([N+](=O)[O-])cc1)Nc1nccs1 | 13.9
22 | CCCCOc1ccc(C(=O)NCC(=O)N(C)Cc2nc3ccccc3c(=O)[nH]2)cc1 | 1.71
23 | N/C(Cc1nc(-c2ccc(F)cc2)cs1)=N\O | 10.2

Row | Structure (SMILES) | hERG current change (%, negative = inhibition) at 1uM [%]
24 | O=S(=O)(NOCc1ccc(Cl)cc1)c1ccc(Cl)cc1 | 18.6
25 | O=C(CCC(=O)OCc1ccc(Br)cc1)Nc1ccccc1 | 7
26 | CC1CCCN(C2(O)C(=O)Nc3ccc([N+](=O)[O-])cc32)C1 (stereo not shown) | 3.72
27 | O=C(COC(=O)C1COc2ccccc2O1)Nc1cccc(F)c1 (stereo not shown) | 0.464
28 | COc1ccc(NC(=O)c2cc(-c3cc(OC)c(OC)c(OC)c3)nc3ccccc23)c(OC)c1 | 11.3
29 | COc1ccccc1CNC(=O)C1CCC(CNS(=O)(=O)c2ccccc2)CC1 (stereo not shown) | 14.5
30 | Cc1c(NC(=O)c2ccc(Cl)nc2)cccc1-c1nc2cccnc2s1 | -11.6
31 | COCCNC(=O)c1c(NC(=O)c2nc(SC)ncc2Cl)sc2c1CCCC2 | 19.7
32 | COc1ccc(-c2cc(C(F)(F)F)nc(NCc3cccs3)n2)cc1 | 5.4
33 | COc1ccc(C(=O)NCC(=O)OCC(=O)NC2CCCC2)cc1 | 9.44
34 | O=C(O)CCC(=O)Nc1ccc(N2CCCCC2)c(C(=O)O)c1 | 12.1
35 | CCOc1ccc(-n2cc(-c3ccccc3)c3c(N4CCOCC4)ncnc32)cc1 | 17.7
36 | CC(=O)Nc1ccc(C(=O)OCC(=O)NCc2ccc(Cl)cc2)cc1 | 6.99
37 | CCCNC(=O)c1ccc(N2CCC3(CC2)CC(c2ccccc2)=NO3)c(NC(=O)c2cccc(C)c2)c1 | 2.09
38 | Cc1cccc(NC(=O)COC(=O)CSc2ccccc2)c1C | 9.01
39 | CCOC(=O)c1c(NC(=O)c2ccc(S(=O)(=O)N3CCOCC3)cc2)sc2c1CCN(C)C2 | -3.23
40 | CCCNc1nc2c(c(=O)n(C)c(=O)n2C)n1Cc1cccc(C)c1 | 1.2
41 | COc1ccc(NC(=O)CN(C)CC(=O)NC2CCC(C)CC2)cc1 (stereo not shown) | 12
42 | COC(=O)N/N=C/c1cc(Cl)cc(Cl)c1OCc1ccccc1 | 3.6
43 | Fc1ccccc1-n1cn[nH]c1=S | 20.4
44 | Cc1ccc(-n2cc(CNCCc3cscn3)c(-c3ccc(F)cc3)n2)cc1 | 20.3
45 | Cc1ccc(CNC(=O)COC(=O)CSc2cc(C)c(Br)cc2C)cc1 | 5
46 | CC(=O)Nc1ccc(S(=O)(=O)NCCCc2ccccc2)cc1 | 14.1
